# Results published in the supplement of paper PMC11417369.
# ± gives the standard deviation of the averaged measurements. The list shows a part of the results.
# Tested on: PfAP2-EXP AP2 domain (GST-tagged)
# Assay: gcPBM binding intensity (ln(normalized median fluorescence intensity)); higher = stronger DNA binding
# Method in brief: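 Binding intensity is the highest Masliner-normalised natural-log median intensity over replicate spots in either probe orientation. To obtain it, GST-tagged P. falciparum DNA-binding domains made in E. coli were incubated for 1 h on an Agilent 4 × 180k array of primer-extended double-stranded 36-bp intergenic genomic probes plus negative controls. Detection used Alexa488 anti-GST antibody with scanning at 488 nm.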
row,Sequence,gcPBM binding intensity (ln)
1,ATATATATATATATATGTACATAATATATGTCCTAT [XGTACX_site5087],10 ± 0.55
2,GTAAGCATAAATATATGTACATACATATACAGATAT [XGTACX_site3361],8.6 ± 0.37
3,ATTAGTTTACACATATGTACATATATTACAACAAAA [XGTACX_site275],8.76 ± 0.47
4,GGTGATATAATATATACATGCACATATATATTATTA [TGCATGCA_site970],8.82 ± 0.057
5,TTTATATGTATGAAGTGTACACATATATTGTATTTT [XGTACX_site5731],8.62 ± 0.28
6,TTACAAAAAAATAATTGTACATACAATTTCTGTTAT [XGTACX_site877],8.31 ± 0.23
7,TATGGAAATATATATTGTACGTATGACCTTTAAAAA [XGTACX_site3935],8.56 ± 0.37
8,TGGATAAAATAAAAATGTACTTAACATTTATATTTT [XGTACX_site712],8.02 ± 0.28
9,AACAAAAGTAATTAAAAACAATACAAACATATGTTT [XGTACX_negctrl_site220],8.28 ± 0.48
10,ATGTATGAAAAAATGTGTACATAATTTTTTTTTTTT [XGTACX_site5444],8.48 ± 0.23
11,ATCATTCAAAAATGCTGTACTAGGGGAAAACGTGTT [XGTACX_site7168],8.65 ± 0.49
12,ATATATAGGTTCCCTTTTCTTTTTTTTTTTTTTTTT [CACACA_negctrl_site1159],8.45 ± 0.4
13,TTTCTAATTTATATCACACACATATAAATATAGTAA [CACACA_site6210],8.42 ± 0.38
14,AAATAATATAAACATACACACACACCGATATATATA [CACACA_site8945],8.9 ± 0.31
15,TTTGGAATATTAATTGTGCACTTAAAAAGTTAATTA,8.9 ± 0.47
16,TTAAATGTTGGTTGTAGTACTCCATATGTTGTTTTA [XGTACX_site5312],8.53 ± 0.39
17,CTTATGTGCATACCTACACACTTACATATATATATA [CACACA_site8973],10 ± 0.14
18,TGATACTGCAAAAAATATAAAAAAATAATAAAATAA [CACACA_negctrl_site791],8.37 ± 0.3
19,TATATATATATAAGATGTACCCTTTGAAATAATAAT [XGTACX_site7215],9.84 ± 0.23
20,AACATAAAACGTAATATATTACAAATATAAACAATC [CACACA_negctrl_site1675],9.12 ± 0.33
21,TTACCATTTGAAAATTCACACACTTTATTTTGTTAT [CACACA_site3799],8.64 ± 0.38
22,ATATATATATATATATGTACATATTTTATAACTGTA [XGTACX_site5395],10.2 ± 0.33

row,Sequence,gcPBM binding intensity (ln)
1,ATTTATACATATAAACGTACATACATATATAATATT [XGTACX_site2969],8.54 ± 0.34
2,TTTCTTCGAAATAGAACACTTGTGCAAAATAAGCAA [XGTACX_negctrl_site361],8.94 ± 0.014
3,TGAACAAAAAAAAATTGTACTTTTTTTTTAATATTT [XGTACX_site7172],8.13 ± 0.25
4,ATTTTTTTATAAAATTTTTATATAATTTATTATAAA [GTGCAC_negctrl_site96],8.16 ± 0.52
5,AAAAAAAACAATCTCATACACACTAGGGATTAATTA [CACACA_site1776],8.34 ± 0.41
6,TAAAGAGAAATATGTACATGCGAAAATGCCTTAAAT [TGCATGCA_site1050],8.97 ± 0.39
7,ATATATACTATAATAGTGCATTAAAAAAGTAAAAAT,9.05 ± 0.16
8,AAATATAATATACAAAGTACTTTTTCATCTTATATA [XGTACX_site8771],8.24 ± 0.092
9,AGACAATAATATAATCGTACAATAAATAAAATAAAA [XGTACX_site5231],8.78 ± 0.25
10,AAAATAATCTTTTGATTGCACTGTTACATTTTTTCT [GTGCAC_site9563],8.51 ± 0.25
11,TATAATATATTTTAATGTACGTACATCCCGATTAAT [XGTACX_site7651],8.79 ± 0.27
12,ATTTTTTTTTCTTAATGTACATACCAAAAAGAAAGA [XGTACX_site5471],8.57 ± 0.33
13,GATAAAATATGTTGCCGTACATATTCATATACTTAA [XGTACX_site4776],8.64 ± 0.38
14,TATTAATATATATGTTGTACAAGTTTTTTTTTTTTT [XGTACX_site5865],8.61 ± 0.5
15,TTTGTCTGCATACGCACACACGTGTACCATCTTATG [CACACA_site4784],9.23 ± 0.52
16,TATATACGCATTTTTATACACACTTGTTTTATAAAA [CACACA_site727],8.64 ± 0.35
17,ATATAAAATAATACATGTACATATTATATATATATA [XGTACX_site1082],9.62 ± 0.3
18,TTCTATATTTCTTTTTGTACATATAAATTCAAATAA [XGTACX_site2476],8.95 ± 0.23
19,TATTTATATTCATAATGTACATTCAATTATTGTTTT [XGTACX_site4191],8.99 ± 0.88
20,AAATATTAAATGACAAAAAAAAAAAAAAAAGGGGTT [CACACA_negctrl_site951],8.32 ± 0.4
21,TTCTTTATTTTTTCTACACACATTATATATTCAAAG [CACACA_site5866],8.89 ± 0.35
22,TATTTTGAAAATAAAAGTACAAATTTTATATTTAAA [XGTACX_site3238],8.11 ± 0.33

row,Sequence,gcPBM binding intensity (ln)
1,TAAAAGTTCACCTGTACACACATATATATATGTACA [CACACA_site1707],8.57 ± 0.31
2,TTTTTTATTTTTTGTTATATTTATAATAATTTATGA [XGTACX_negctrl_site260],8.45 ± 0.69
3,ATATATATATATGTAGTGCATTTTATATATAATATT,9.97 ± 0.43
4,TACTTTACACATATTTTTAATTATTCTGAATTCAAA [GTGCAC_negctrl_site253],8.51 ± 0.37
5,TACAGATATTTTATTTCACACATTTTATCATTTTCT [CACACA_site5701],8.88 ± 0.33
6,TTCAAAAAAGGAAAGTTGCACTTGATACGCTTATTA [GTGCAC_site9411],8.58 ± 0.27
7,ATAAGTAATATAATATGTACATATATATATATATAT [XGTACX_site3818],10.2 ± 0.37
8,AAGAAATAAATACATACACACATATATATATATATA [CACACA_site3362],10 ± 0.34
9,GGAAATTTCAATATTTGTACATATATATATATATAT [XGTACX_site3222],10.1 ± 0.38
10,ATGCAAAATAAAGAAGCACACAAAAATGAAATATAT [CACACA_site9217],9.06 ± 0.4
11,AGAATAATTTTATCGGTACACACTGTATGCATAATA [CACACA_site374],8.79 ± 0.47
12,TATATATTGTTATAATGTACATAATATTTTATCTGC [XGTACX_site4983],8.41 ± 0.4
13,ATATTATTTTATGCTACACACATTTTCTCTTATAAA [CACACA_site943],8.86 ± 0.33
14,AATATATTTTAGAGTTTTATATATTTTATGCATATA [GTGCAC_negctrl_site710],8.4 ± 0.44
15,TTCAAACATATTAATTGTACATACAACAAAACCATG [XGTACX_site5149],8.79 ± 0.28
16,TGGAAAATAAAGTACGCACACAAAAATTCTCTTCAT [CACACA_site2327],8.71 ± 0.56
17,ATATGTATTTATGTATTTATGTATTTTTATATTTTT [CACACA_negctrl_site595],8.52 ± 0.43
18,AAAAAAAAAAAACACACACACACATTCAATATAAAA [CACACA_site40],8.4 ± 0.58
19,TAAATGTTAAAATTCACACAAATATGTGCGGAATAT [CACACA_site5055],8.52 ± 0.43
20,GGAATTTTTATTCGAAGTACTGTTGTGAGTAATAAA [XGTACX_site8599],8.57 ± 0.4
21,ATATATAATATATACACACACATGTATATATAAATA [CACACA_site1968],8.35 ± 0.4
22,ACCCATTTGATAATAATGCACACCACATATATTTAT [CACACA_site3061],8.82 ± 0.16

row,Sequence,gcPBM binding intensity (ln)
1,TGCAAGGAACAACACACACACACATAAATGTATATA [CACACA_site8149],8.56 ± 0.49
2,TTTGACTAAATTAAATATTAAAGTATGGATTATTCT [CACACA_negctrl_site833],8.05 ± 0.55
3,AAGACCATATGAATAATGCACACGTTTTAAAATATT [CACACA_site2323],8.78 ± 0.39
4,TTTCCATTTTCTCTATGTACATAAAAATGAGATAAA [XGTACX_site5689],8.56 ± 0.28
5,CACACGCACGGACACACACACAAAAAAAAAAAGAAA [CACACA_site6378],8.53 ± 0.17
6,GTTTGGTGGTGTTTTGGTACGTACGGGGGTGTATGT [XGTACX_site1211],9.66 ± 0.2
7,ATATTTATGGAATATACACACATGTATAATTACATA [CACACA_site7045],8.19 ± 0.25
8,AAATAAATCTTATGCACACAAATAATTAATGAAACA [CACACA_site5011],8.62 ± 0.29
9,TCTTTGTACTTTCACATGTACACCCAAATGGAAATT [CACACA_negctrl_site1442],8.82 ± 0.3
10,AGGACTAATATTTGAACACACATATAATAAATACAT [CACACA_site6068],8.61 ± 0.45
11,TATATATATATATACACACACACAAAAAAAAAAAAA [CACACA_site1505],10.2 ± 0.21
12,AGCATAAACAATTTTTGAAAAAATATACACTCATAG [CACACA_negctrl_site890],8.55 ± 0.38
13,AAAATAACGAGTCAAACACACATATATATATATATA [CACACA_site2039],10.1 ± 0.47
14,CTCAACATATACGTAACACACATATATATATATATA [CACACA_site3838],10.2 ± 0.41
15,TCTACAAGGCTTGATCGTACAATTTGAATGTATTTG [XGTACX_site7698],8.49 ± 0.57
16,AGATTATATATATGTATATATGTATATATTTATATA [CACACA_negctrl_site1797],7.92 ± 0.3
17,TATGCAAGGAACCACACACACACACCCAAATGTATA [CACACA_site750],8.55 ± 0.63
18,TATCTCTCTTTCTGCTGTACATAAAAATTATATAAT [XGTACX_site5961],8.97 ± 0.41
19,AACATATTTTTAAATACACACACATAAAAAAAAAAA [CACACA_site8279],8.59 ± 0.5
20,TATATATAATATACATGTACAAATGTATTTAAAAAT [XGTACX_site6090],8.62 ± 0.36
21,TCATATTTGCCTTTTTATTTAGAACACAAAAAAAAA [CACACA_negctrl_site1152],8.24 ± 0.38
22,CAAAAAAAGAAAGCTACACACATTTATGTGCTATAT [CACACA_site2777],8.39 ± 0.3
